Results published in the supplement of paper PMC3334620.
Over roughly 33,000 sequences, “E-score (-0.5 to 0.5)” has its median near -0.056; the highest 2% begin near 0.38. The list shows a part of the results.

Each sequence was assayed against Stb4 (UniProt P50104) (assay: PBM E-score (8-mer binding enrichment) (E-score (-0.5 to 0.5)); higher = stronger / more preferred TF binding; most listed sequences are background and not binding sites). Settings: protein concentration: 200 nM; construct: GST-DNA-binding domain.
Procedure: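 Universal 'all 10-mer' protein binding microarrays (Agilent AMADID 015681) probed with GST-tagged S. cerevisiae TFs (full-length or DBD) made by in vitro transcription/translation (PURExpress), about 100-200 nM. Bound TF was detected with fluorescent anti-GST. Each ungapped 8-mer (which stands for itself and its reverse complement) is scored by the PBM enrichment score (E-score), a modified Wilcoxon-Mann-Whitney statistic from -0.5 to +0.5, computed with the Universal PBM Analysis Suite. Scale: above 0.35 generally sequence-specific binding.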

Sequence	PBM E-score
AACCTTAG	-0.0964
GCACTAAC	0.0338
GAAAGGGA	0.0367
AGCGGCTG	0.0576
AATTCAGC	-0.017
ATCCTGGC	-0.142
AGCACGAC	-0.0379
AATTTTGT	0.0865
CACAGTCC	-0.147
CTGTGCTC	-0.00708
GAACTCAA	-0.011
CGACTTGA	-0.0925
ACGACGTG	-0.231
CACACTAG	-0.139
TGACAGCA	-0.127
GGCTACAA	-0.00609
ACGAATGA	0.0262
CCACTGTA	-0.133
AATCGGAC	0.133
CAGCGGCA	-0.0226
GCGTATCA	-0.19
AAGTCCAC	-0.202
ACTGAGCG	-0.198
GGCGTGAA	-0.0673
ACCAGTGA	-0.21

Sequence	PBM E-score
CTAGCCTC	-0.165
GAATTGAA	0.0209
TACTTACA	-0.0918
TAATGAAA	-0.043
AGGACATC	0.0539
CAGGCGAG	-0.294
ATGGTGGG	-0.0919
CGCGCAGA	-0.061
GCCTACCC	0.0606
ATCGGAAA	0.424
GTTCAAGA	0.0136
ATGGAGCA	-0.195
GCCCTACC	0.00825
CCGCCGTC	0.0393
AACTCCTC	-0.0105
GCGGCATA	0.0839
CCATGTTC	-0.0158
AGATCCGG	0.366
AAAAGAAT	-0.0316
GACGCGAA	-0.14
ACGCACGT	-0.132
ACGATAGA	-0.181
ACATAACG	0.0312
CCCCGTGC	0.176
CCTTTATA	-0.113

Sequence	PBM E-score
CGCGTACC	0.0237
TACGACAA	-0.0859
ATCGCGGA	0.172
AGCCTTTA	-0.0983
GTGCGAAC	-0.0642
CTACAGTC	-0.214
ACCACTCC	0.137
ACAGGTAT	0.0777
AGAAGATG	-0.0645
CGGGTAGA	0.389
AAGGGGAG	-0.056
CATCACCA	-0.265
CCTCCACG	-0.194
ATTTGCGA	-0.226
ACCTTTTC	-0.171
TCTAAAAA	0.0389
CTGCAGTA	-0.353
GTTTGACA	-0.0918
TGAAAGAA	-0.122
CCCGCCGC	0.274
TAGTTGCA	-0.0122
GATATTTA	0.0794
CGTCAACC	0.0346
CAGGGAGG	-0.264
CCACGACA	-0.126

Sequence	PBM E-score
CTGTTATC	-0.0959
ACGCTGGA	-0.079
ACCTCATG	-0.336
GCCGCAGC	0.00612
GGAGAATA	0.148
GCGGGTGA	0.214
GTTTTAAA	-0.17
CAGAAGCG	0.0402
CGTGCGGC	0.00334
ACCGTAGC	0.0437
GTGTCCAA	-0.0404
GTAATTAC	0.0658
TATGTAAA	-0.0136
ATCATCAG	-0.159
CCGGCGCG	0.301
CGGTTGGA	0.098
AACAAGCA	-0.0987
CCGCTTCG	0.177
AGTATCAA	-0.0115
ATTGCAGG	-0.0795
TTTACAAA	-0.083
AGATGGTG	-0.129
ATTGAAAT	-0.155
CCACTACG	0.021
GGTGGGCA	-0.0981

Sequence	PBM E-score
AAACGTCA	-0.174
ATTCGGTC	0.223
GAGACAGA	-0.0711
CAACGCGA	-0.0616
ACGGACGC	-0.0449
GAACGAGA	-0.0136
GTTGGCCA	-0.152
ACCGCGCA	-0.102
AGGGCCGA	0.232
CGGTAGCA	0.13
ACGCGGCA	0.199
CAGGATGC	0.165
GAAAAGAA	0.0326
AGCTGTGC	-0.148
AAGCATGC	-0.292
AGGTAGCG	-0.0768
TACACATA	-0.103
AGGGCTGA	-0.0772
ACTGAACA	-0.0425
GAGGATAA	-0.0181
AGCAAGAG	-0.397
ACGCCGGC	0.265
GCATATGC	-0.173
AAGTAAAT	0.0183
CTGCTTTC	0.00582

Sequence	PBM E-score
ATGGACAC	-0.175
AGATCTAG	-0.255
AGCATACT	-0.166
ATTTGATA	-0.106
CTCGTACC	0.0299
CCATACTA	-0.0666
GCCTCGAC	-0.251
ACGTAAGG	-0.309
AGTGGGAG	-0.244
AGTGTCGC	0.00342
ATAGATAT	0.0746
ACAACCTG	-0.288
ATACACCA	-0.154
GGCACACC	0.0691
CGACTAAG	0.0544
ATTTTCCC	0.0682
GTATTTAA	-0.0662
TCTACGAA	-0.192
TCTGCAGA	-0.303
CCCTAGAA	-0.216
CAGAACGG	0.0906
ACACGTAT	-0.165
CGTCCCGA	0.402
CTACCGAC	0.278
AAAACGGT	-0.164

Sequence	PBM E-score
GCCCAGCC	-0.0549
ATTTTGAC	0.00768
AACCACCC	0.159
ACTGATCC	-0.0314
GACTATAA	-0.162
AATCACAG	-0.269
CAATTACG	-0.133
CTGAAACC	0.117
AAACAAAT	-0.0369
GCAAAACC	0.0298
AGAATGTA	-0.0835
CCCGAACA	0.393
GGTTGCAA	-0.0593
AAGTACCT	-0.175
CGAAATTC	0.236
ACGATCAC	-0.168
ATGCTGGC	-0.286
AACTGCTT	-0.213
CGGAAATA	0.429
ATTGGTTA	-0.0832
AATAGCCC	-0.12
ACGCCGCG	0.042
TACGCGGA	0.201
GCCCCCCA	-0.177
ATGCTGCA	-0.168

Sequence	PBM E-score
ACTTTTCT	-0.157
GCTACAGC	0.0338
ACTGCCGA	0.407
CACACAAC	-0.109
AAACAGTT	-0.0803
GATTGGCC	-0.0876
ACGCACTC	-0.0152
AGTAGCAT	0.00303
AAACTTGA	-0.205
AAGACTCA	-0.324
AGTTGCAA	-0.126
ATGATACA	-0.127
AAATACTT	0.038
GGCGTAAC	-0.135
ACATACGC	0.141
AATAATGG	-0.0111
TAACTAGA	0.059
CAATCACG	0.0651
TGTAAGAA	0.101
ATAAACAG	-0.0548
CGGTTATC	0.316
GGTAGATA	0.18
AACCCGCT	0.0984
ACTGAATA	-0.0162
CGAGGTAA	0.127

Sequence	PBM E-score
TCCGGCAA	0.347
CTTAGGTA	-0.101
AGAGACCA	-0.167
AACGACTA	-0.151
GTCCTAGA	-0.0562
TGACGTCA	-0.158
AAACCATG	0.108
ATCATAGC	0.0151
AGAACAGC	-0.172
GAACTACC	0.161
CTAATCTA	-0.153
CTGCTGAC	-0.102
GAACACGC	0.11
CTATGGGA	-0.104
AAGTGCCC	0.0188
ACCTTTCA	-0.0291
ACGCGGCG	0.121
GACGATCC	0.217
CTCCAATC	-0.189
ATATTGTC	0.123
CAGACACG	0.111
GCCCAACC	-0.0407
AACGTGTG	-0.286
ATGCTAAG	-0.0968
AAGAGCCT	-0.313

Sequence	PBM E-score
ACGCTCAC	-0.0276
GTCAGATA	-0.156
CTGATTGC	-0.03
GATACAGC	0.175
TCTTAAGA	-0.264
CTCGGAGA	0.406
AAATCGGG	0.317
ATATCTAA	-0.198
AGTTAATA	0.073
AGACAGCT	-0.309
CTCACCGC	-0.257
GCACCCGC	0.285
CGAATCGC	-0.0319
AGGGTGAT	-0.0632
CGCAAAAC	-0.00182
ACTGCACT	-0.162
CACGAATG	-0.254
CTTGAGAC	-0.034
CATGACCG	-0.104
AGACCTCT	-0.146
ACGCCTTC	-5e-05
ATAGGTAA	-0.158
CATCGTCG	-0.0404
ACTGCACA	-0.102
ATGCCCAT	-0.255

Sequence	PBM E-score
CGAAGACC	0.0393
CTTTGAGC	-0.151
AGTCGCCA	-0.166
CTCTTAAG	-0.211
ATCCCCGG	0.319
ATCCTGCG	-0.117
CATTATTC	0.0794
TCCTTCCA	-0.102
GGGAAGAA	0.0883
ATAGGTCG	0.117
ACACAAGG	-0.281
ACGAGCTG	-0.126
CCATAGGC	-0.0733
CAAGCGCA	-0.0164
CTTCTGAC	-0.286
ATCACAGG	-0.225
ACATGAAC	-0.0936
TGCTCCAA	-0.154
TCTCGTAA	0.00218
GTATTCAC	0.174
AAACGTAC	-0.132
ATGCTACG	-0.0991
CCCAGTCG	0.0802
ATACGTAG	-0.231
GTTCTGCA	-0.0879

Sequence	PBM E-score
GAGCATAA	0.175
AAATTTAA	0.0055
AATTTCTG	-0.127
ACTCAGCC	-0.0292
CCGTGCTA	0.0858
CTCATAAC	0.0481
ATGACAAT	-0.0174
ACCGGCGT	0.0666
ATGAATGC	-0.145
TCGCTACA	-0.322
CCACCAAC	0.00817
TAAAGACA	-0.235
GAATGCTC	-0.108
CGCCTCTC	-0.167
CAGGCTGA	-0.0668
AATCTAGT	0.143
AGGGGGAA	-0.293
ACTTCTTC	-0.026
AAGGTCAC	-0.215
CCCCTCTA	-0.18
CCTGCTGA	-0.163
TCAGAAAA	-0.356
GAGCAAGC	-0.0432
AACTACAG	-0.0338
TACGGTGA	-0.251

Sequence	PBM E-score
CGCCCTCC	0.0375
AGCGGGCC	0.0413
GCCAGGGC	-0.132
CTCTGCCC	-0.215
AAGGACTA	-0.209
CTCAGCAG	-0.231
CGTTCACA	-0.0233
CCGAACAA	0.425
AAGGTTGA	-0.137
CACCAGGA	-0.0574
CGGATGAC	0.328
CTCTGAAC	-0.174
CGCATTGA	0.0657
ATTCAGGG	-0.144
CGTATTAC	0.0881
GACCCTAA	-0.0535
GAGTTTAA	0.0814
CGCTTGAC	-0.15
GGCCCTGA	-0.217
TATGTTAA	-0.0728
CGCGACTA	0.0456
CGCTCTAA	-0.0936
GACGAGAC	-0.0141
AAAAGACT	-0.227
AATGTCAT	0.0487

Sequence	PBM E-score
TACTTGGA	-0.185
ATACAGCA	-0.0487
CAGCCGGG	0.237
GTGACGGA	0.214
ACTAGCGG	-0.0195
GGTGAAGA	-0.14
ATCGGACG	0.289
CAAGGAAA	-0.0655
TAGAGTCA	-0.256
ATGCTCCC	-0.0169
GTTTTCCA	-0.00305
CCCACTCG	0.0329
ATTAGTTC	0.0663
ACCTTTCC	0.256
CGAGGGGC	-0.00304
CGCAGGAC	-0.13
CATATATG	-0.187
TAGGCTGA	-0.179
AAAAGTTG	-0.0801
